{"source": "paper PMC9911399", "about": "“Two distinct binding modes provide the RNA-binding protein RbFox with extraordinary sequence specificity”", "binders": {"B1": {"name": "CUGGUCG (DNA:RNA)", "RNA": "GGGAGACCGGAAUUCAGAUUGUCCCUGGUCGUUAAAUCCCGUCGUAGCCACCA", "DNA 1": "CAATCTGAATTCCGGTCTCCC", "DNA 2": "TGGTGGCTACGACGGGATT"}, "B2": {"name": "CACCCUU (DNA:RNA)", "RNA": "B1 RNA with U26A, G27C, G28C, U29C, C30U, G31U", "DNA 1": "CAATCTGAATTCCGGTCTCCC", "DNA 2": "TGGTGGCTACGACGGGATT"}, "B3": {"name": "GCGCAUC (DNA:RNA)", "RNA": "B1 RNA with C25G, U26C, G28C, U29A, C30U, G31C", "DNA 1": "CAATCTGAATTCCGGTCTCCC", "DNA 2": "TGGTGGCTACGACGGGATT"}, "B4": {"name": "GCUUGGU (DNA:RNA)", "RNA": "GGGAGACCGGAAUUCAGAUUGUCCGCUUGGUUUAAAUCCCGUCGUAGCCACCA", "DNA 1": "CAATCTGAATTCCGGTCTCCC", "DNA 2": "TGGTGGCTACGACGGGATT"}, "B5": {"name": "AGCGAUA (DNA:RNA)", "RNA": "B1 RNA with C25A, U26G, G27C, U29A, C30U, G31A", "DNA 1": "CAATCTGAATTCCGGTCTCCC", "DNA 2": "TGGTGGCTACGACGGGATT"}, "B6": {"name": "ACAGGUA (DNA:RNA)", "RNA": "B4 RNA with G25A, U27A, U28G, G30U, U31A", "DNA 1": "CAATCTGAATTCCGGTCTCCC", "DNA 2": "TGGTGGCTACGACGGGATT"}, "B7": {"name": "CUGGCGA (DNA:RNA)", "RNA": "B1 RNA with U29C, C30G, G31A", "DNA 1": "CAATCTGAATTCCGGTCTCCC", "DNA 2": "TGGTGGCTACGACGGGATT"}, "B8": {"name": "CAGCACU (DNA:RNA)", "RNA": "B1 RNA with U26A, G28C, U29A, G31U", "DNA 1": "CAATCTGAATTCCGGTCTCCC", "DNA 2": "TGGTGGCTACGACGGGATT"}, "B9": {"name": "AAAAGAC (DNA:RNA)", "RNA": "B4 RNA with G25A, C26A, U27A, U28A, G30A, U31C", "DNA 1": "CAATCTGAATTCCGGTCTCCC", "DNA 2": "TGGTGGCTACGACGGGATT"}, "B10": {"name": "CAUUCGA (DNA:RNA)", "RNA": "B4 RNA with G25C, C26A, G29C, U31A", "DNA 1": "CAATCTGAATTCCGGTCTCCC", "DNA 2": "TGGTGGCTACGACGGGATT"}, "B11": {"name": "AGCAGGU (DNA:RNA)", "RNA": "B4 RNA with G25A, C26G, U27C, U28A", "DNA 1": "CAATCTGAATTCCGGTCTCCC", "DNA 2": "TGGTGGCTACGACGGGATT"}, "B12": {"name": "GUUUUAG (DNA:RNA)", "RNA": "B1 RNA with C25G, G27U, G28U, C30A", "DNA 1": "CAATCTGAATTCCGGTCTCCC", "DNA 2": "TGGTGGCTACGACGGGATT"}, "B13": {"name": "UCAAGCG (DNA:RNA)", "RNA": "B1 RNA with C25U, U26C, G27A, G28A, U29G", "DNA 1": "CAATCTGAATTCCGGTCTCCC", "DNA 2": "TGGTGGCTACGACGGGATT"}, "B14": {"name": "GUUUAAA (DNA:RNA)", "RNA": "B4 RNA with C26U, G29A, G30A, U31A", "DNA 1": "CAATCTGAATTCCGGTCTCCC", "DNA 2": "TGGTGGCTACGACGGGATT"}, "B15": {"name": "GUCCACA (DNA:RNA)", "RNA": "B1 RNA with C25G, G27C, G28C, U29A, G31A", "DNA 1": "CAATCTGAATTCCGGTCTCCC", "DNA 2": "TGGTGGCTACGACGGGATT"}, "B16": {"name": "UACAUUA (DNA:RNA)", "RNA": "B1 RNA with C25U, U26A, G27C, G28A, C30U, G31A", "DNA 1": "CAATCTGAATTCCGGTCTCCC", "DNA 2": "TGGTGGCTACGACGGGATT"}, "B17": {"name": "GCCUUGG (DNA:RNA)", "RNA": "B4 RNA with U27C, G29U, U31G", "DNA 1": "CAATCTGAATTCCGGTCTCCC", "DNA 2": "TGGTGGCTACGACGGGATT"}, "B18": {"name": "GAAUCCU (DNA:RNA)", "RNA": "B4 RNA with C26A, U27A, G29C, G30C", "DNA 1": "CAATCTGAATTCCGGTCTCCC", "DNA 2": "TGGTGGCTACGACGGGATT"}, "B19": {"name": "AGUAGGG (DNA:RNA)", "RNA": "B4 RNA with G25A, C26G, U28A, U31G", "DNA 1": "CAATCTGAATTCCGGTCTCCC", "DNA 2": "TGGTGGCTACGACGGGATT"}, "B20": {"name": "ACACACC (DNA:RNA)", "RNA": "B1 RNA with C25A, U26C, G27A, G28C, U29A, G31C", "DNA 1": "CAATCTGAATTCCGGTCTCCC", "DNA 2": "TGGTGGCTACGACGGGATT"}, "B21": {"name": "GGACAUU (DNA:RNA)", "RNA": "B4 RNA with C26G, U27A, U28C, G29A, G30U", "DNA 1": "CAATCTGAATTCCGGTCTCCC", "DNA 2": "TGGTGGCTACGACGGGATT"}, "B22": {"name": "UACAUCU (DNA:RNA)", "RNA": "B1 RNA with C25U, U26A, G27C, G28A, G31U", "DNA 1": "CAATCTGAATTCCGGTCTCCC", "DNA 2": "TGGTGGCTACGACGGGATT"}, "B23": {"name": "GGCGGGU (DNA:RNA)", "RNA": "B4 RNA with C26G, U27C, U28G", "DNA 1": "CAATCTGAATTCCGGTCTCCC", "DNA 2": "TGGTGGCTACGACGGGATT"}, "B24": {"name": "CCCCGAG (DNA:RNA)", "RNA": "B1 RNA with U26C, G27C, G28C, U29G, C30A", "DNA 1": "CAATCTGAATTCCGGTCTCCC", "DNA 2": "TGGTGGCTACGACGGGATT"}, "B25": {"name": "AAGACCC (DNA:RNA)", "RNA": "B1 RNA with C25A, U26A, G28A, U29C, G31C", "DNA 1": "CAATCTGAATTCCGGTCTCCC", "DNA 2": "TGGTGGCTACGACGGGATT"}, "B26": {"name": "AUGGCUG (DNA:RNA)", "RNA": "B1 RNA with C25A, U29C, C30U", "DNA 1": "CAATCTGAATTCCGGTCTCCC", "DNA 2": "TGGTGGCTACGACGGGATT"}, "B27": {"name": "UUGGCCA (DNA:RNA)", "RNA": "B1 RNA with C25U, U29C, G31A", "DNA 1": "CAATCTGAATTCCGGTCTCCC", "DNA 2": "TGGTGGCTACGACGGGATT"}, "B28": {"name": "CAAUGCA (DNA:RNA)", "RNA": "B1 RNA with U26A, G27A, G28U, U29G, G31A", "DNA 1": "CAATCTGAATTCCGGTCTCCC", "DNA 2": "TGGTGGCTACGACGGGATT"}, "B29": {"name": "GUUUUUC (DNA:RNA)", "RNA": "B4 RNA with C26U, G29U, G30U, U31C", "DNA 1": "CAATCTGAATTCCGGTCTCCC", "DNA 2": "TGGTGGCTACGACGGGATT"}, "B30": {"name": "GGCCUCA (DNA:RNA)", "RNA": "B1 RNA with C25G, U26G, G27C, G28C, G31A", "DNA 1": "CAATCTGAATTCCGGTCTCCC", "DNA 2": "TGGTGGCTACGACGGGATT"}, "B31": {"name": "GAUAGGC (DNA:RNA)", "RNA": "B4 RNA with C26A, U28A, U31C", "DNA 1": "CAATCTGAATTCCGGTCTCCC", "DNA 2": "TGGTGGCTACGACGGGATT"}}, "note": "Numbering of substitutions follows the chain as printed; changes in the protein carry UniProt numbers. The list shows a part of the results."}
{"target": "T1, RBFOX1 RRM (Homo sapiens, UniProt Q9NWB1 109-208)", "T1 sequence": "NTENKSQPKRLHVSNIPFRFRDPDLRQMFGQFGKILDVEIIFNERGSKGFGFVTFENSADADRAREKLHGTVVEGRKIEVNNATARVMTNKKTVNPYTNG", "test": "EMSA; HiTS-Eq, 1 nM pool, 10 min; buffer printed only for the single-RNA assays: 10 mM Tris pH 7.5, 150 mM NaCl, 3.4 mM EDTA, 0.001% NP-40, 30 C", "conditions": "tags: His6 N-terminal (pET28a); label: 5' 32P", "in_short": "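Purified wild-type or mutant RbFox RRM at increasing concentrations was equilibrated with 1 nM of 5′-radiolabelled RNA carrying 7 randomized nucleotides for 10 min in 50 µL. Unbound RNA was separated by 8% native PAGE and sequenced. Relative association constants came from read-count changes of each RNA species compared with the control reaction, normalised to the cognate motif.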"}
{"binder": "B1", "binding signal": "0.028 KA relative to UGCAUGU"}
{"binder": "B2", "binding signal": "0.00104 KA relative to UGCAUGU"}
{"binder": "B3", "binding signal": "0.0246 KA relative to UGCAUGU"}
{"binder": "B4", "binding signal": "0.0285 KA relative to UGCAUGU"}
{"binder": "B5", "binding signal": "0.00447 KA relative to UGCAUGU"}
{"binder": "B6", "binding signal": "0.00528 KA relative to UGCAUGU"}
{"binder": "B7", "binding signal": "0.0158 KA relative to UGCAUGU"}
{"binder": "B8", "binding signal": "0.00669 KA relative to UGCAUGU"}
{"binder": "B9", "binding signal": "0.00253 KA relative to UGCAUGU"}
{"binder": "B10", "binding signal": "0.00425 KA relative to UGCAUGU"}
{"binder": "B11", "binding signal": "0.00926 KA relative to UGCAUGU"}
{"binder": "B12", "binding signal": "0.0145 KA relative to UGCAUGU"}
{"binder": "B13", "binding signal": "0.00798 KA relative to UGCAUGU"}
{"binder": "B14", "binding signal": "0.00617 KA relative to UGCAUGU"}
{"binder": "B15", "binding signal": "0.00443 KA relative to UGCAUGU"}
{"binder": "B16", "binding signal": "0.00486 KA relative to UGCAUGU"}
{"binder": "B17", "binding signal": "0.0242 KA relative to UGCAUGU"}
{"binder": "B18", "binding signal": "0.00613 KA relative to UGCAUGU"}
{"binder": "B19", "binding signal": "0.00647 KA relative to UGCAUGU"}
{"binder": "B20", "binding signal": "0.000307 KA relative to UGCAUGU"}
{"binder": "B21", "binding signal": "0.00636 KA relative to UGCAUGU"}
{"binder": "B22", "binding signal": "0.0022 KA relative to UGCAUGU"}
{"binder": "B23", "binding signal": "0.0234 KA relative to UGCAUGU"}
{"binder": "B24", "binding signal": "0.00695 KA relative to UGCAUGU"}
{"binder": "B25", "binding signal": "0.00024 KA relative to UGCAUGU"}
{"binder": "B26", "binding signal": "0.0204 KA relative to UGCAUGU"}
{"binder": "B27", "binding signal": "0.0217 KA relative to UGCAUGU"}
{"binder": "B28", "binding signal": "0.0123 KA relative to UGCAUGU"}
{"binder": "B29", "binding signal": "0.0237 KA relative to UGCAUGU"}
{"binder": "B30", "binding signal": "0.0114 KA relative to UGCAUGU"}
{"binder": "B31", "binding signal": "0.011 KA relative to UGCAUGU"}
